Source: PubChem BioAssay AID1508621 (National Center for Advancing Translational Sciences (NCATS), 2021)
This list was built around the results that the source calls inconclusive (neither active nor inactive); the mix of calls is not that of the screen. Potencies beside an inconclusive call are fits to weak or partial responses and may not hold up. Activity calls are given as the source filed them. Calls come from the whole dose curve; as a rule, active = well fitted inhibition curve with a large enough effect; inconclusive = small, poorly fitted or top-dose-only effect; inactive = no such curve, though single readings can be large or run the other way.

experiment: Confirmatory qHTS for Identification of Small Molecule Inhibitors of Huntingtin Promoter Activity; conditions: HEK293 HTT promoter firefly luciferase reporter, 24 h; series mostly up to 57.5 µM; note: nearly all actives have a fitted effect of over 65% in size
Summary of the method: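 Activity normalized between vehicle control (0%) and zero RLU (-100%) from firefly luminescence (Dual-Glo). Compounds, up to 57.5 uM final, incubated 24 h at 37C on HEK293 reporter cells plated 24 h earlier.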
Potency is the fitted concentration of half-maximal effect; tags give direction and shape of the fitted curve.

Potency, inactive:
CCS(=O)(=O)c1oc(-c2ccc(F)cc2)nc1S(=O)(=O)c1ccc(Br)cc1
O=C(NCc1cccnc1)C(=O)NCC(c1cccnc1)N1CCN(c2ccccc2F)CC1 (stereo not given)
O=C(NCc1ccccc1)c1cc2ccc3cccnc3c2[nH]1
CCS(=O)(=O)N1CC(CC#N)(n2cc(-c3ncnc4[nH]ccc34)cn2)C1
Cc1cc(NC(=O)c2cc(-c3ccc(Cl)cc3)on2)nn1Cc1ccc(Cl)cc1
Cc1ccc(CN(C(=O)COc2cccc(Cl)c2)c2ccccn2)o1
CCN(C(=O)CSc1nc(-c2ccccc2)no1)c1cccc(C)c1
Cc1ccc(NC(=O)c2ccc(C)c(S(=O)(=O)N3CCCCCC3)c2)cc1
Cc1ccccc1Cn1c(=O)n(Cc2ccco2)c(=O)c2oc3ccccc3c21
Cc1ccccc1C(=O)Nc1nc(-c2ccc(Br)cc2)ns1
CN(C)C(=O)COC(=O)Cc1ccc(OC(=O)c2ccc(N=C(N)N)cc2)cc1
CSc1ccc(/C=C/c2nc3ccccc3n2S(=O)(=O)c2ccc(F)c(C)c2)cc1

Potency, inconclusive:
O=C(CSc1nc(-c2ccc(F)cc2)[nH]c1-c1ccccc1)Nc1ccccc1 26.9 µM [inhibitor, single point]
Cc1ccccc1C(=O)NCc1ccc2c(c1)CCN2C(=O)c1ccccc1 16.9 µM [inhibitor, partial curve]
NC1[C@H]2CN(c3nc4c(cc3F)c(=O)c(C(=O)O)cn4-c3ccc(F)cc3F)C[C@@H]12 (stereo not given in full) 37.9 µM [inhibitor, single point]
O=C(CSc1nc(-c2ccc(F)cc2)[nH]c1-c1ccc(F)cc1)Nc1ccc2c(c1)OCCO2 30.1 µM [inhibitor, partial curve]
CCOc1ccc(NC(=O)c2c(Nc3ccccc3C)sc(C(=O)c3ccc(Cl)cc3)c2N)cc1 3.01 µM [inhibitor, full curve]
COc1ccccc1N1CCN(C(CNC(=O)C(=O)NCCc2ccccc2)c2cccnc2)CC1 (stereo not given) 10.7 µM [inhibitor, partial curve]
Cc1cccc(N2CCN(C(=O)c3ccc4c(c3)CCN4S(=O)(=O)c3ccccc3)CC2)c1C 8.49 µM [inhibitor, partial curve]
CCN1C(=O)c2ccccc2Sc2ccc(NC(=O)c3cccc(C)c3)cc21 30.1 µM [inhibitor, single point]
CCOc1ccc(N(Cc2ccccc2)C(=O)c2nc(SC)ncc2Cl)cc1 23.9 µM [inhibitor, single point]
COc1ccc(C(=O)Oc2c(Sc3ccccc3)c(C)nn2-c2ccccc2)c(OC)c1 21.3 µM [inhibitor, partial curve]
COc1ccc(N(Cc2ccccc2)C(=O)c2nc(SC)ncc2Cl)cc1 19 µM [inhibitor, partial curve]
COc1ccc(NC(=O)c2ccc(-c3nc(CSc4ccccc4)c(C)o3)cc2)cc1OC 2.39 µM [inhibitor, full curve]
O=C(Cn1cc(S(=O)(=O)Cc2ccccc2Cl)c2ccccc21)Nc1cccc(C(F)(F)F)c1 37.9 µM [inhibitor, single point]
O=C(NCCSc1c(-c2ccccc2)[nH]c2ccccc12)c1ccc(S(=O)(=O)N2CCOCC2)cc1 16.9 µM [inhibitor, partial curve]
CCN1C(=O)c2ccccc2Sc2ccc(NC(=O)c3ccc(C)c(F)c3)cc21 16.9 µM [inhibitor, partial curve]
COc1ccc(NC(=O)CN2C(=O)C(C)(C)c3ccccc32)cc1Cl 19 µM [inhibitor, partial curve]
CCCS(=O)(=O)NCCc1sc2nc(-c3ccc(Cl)cc3)nn2c1C 0.675 µM [inhibitor, full curve]
Cc1ccc(CNS(=O)(=O)c2ccc(N3CCCCS3(=O)=O)cc2)cc1 23.9 µM [inhibitor, single point]
CCc1nnc2n1N(C(C)=O)C(c1ccc(C(C)(C)C)cc1)=C(C(C)=O)S2 23.9 µM [inhibitor, single point]
CCc1cccc(NC(=O)CSc2nc3ccsc3c(=O)n2CC)c1 26.9 µM [inhibitor, single point]
Cc1cc(N2CCC(C)CC2)nc2ccc(NC(=O)CCC(=O)N3CCN(c4cccc(C(F)(F)F)c4)CC3)cc12 10.7 µM [inhibitor, partial curve]
C#CCOc1ccc(-c2nnc(Nc3cccc(C)c3)c3ccccc23)cc1 21.3 µM [inhibitor, partial curve]
Cc1cccc(OCC(=O)Nc2ccc3c(c2)N(C)C(=O)c2ccccc2S3)c1 15.1 µM [inhibitor, partial curve]
COc1ccc(NS(=O)(=O)c2ccc3c(c2)CCCN3C(=O)C2CCC2)cc1OC 6.01 µM [inhibitor, full curve]
Cc1cc(N2CCCCC2)nc2ccc(NC(=O)/C=C/c3ccc(OC(C)C)cc3)cc12 4.78 µM [inhibitor, full curve]
FC(F)(F)c1cccc(N2CCN(c3nc4ccccc4n4cnnc34)CC2)c1 26.9 µM [inhibitor, single point]
Cc1ccc(Cn2c(=O)c3ccccc3n3c(-c4cccc(O)c4)nnc23)cc1 30.1 µM [inhibitor, single point]
Fc1ccc(-c2csc(=Nc3cccc(C(F)(F)F)c3)n2Cc2ccc3c(c2)OCO3)cc1 23.9 µM [inhibitor, single point]
